Laboratory results: PubChem BioAssay AID493208 (National Center for Advancing Translational Sciences (NCATS), 2011)
About 340 (0.77%) of roughly 44,000 compounds were called active. Not shown: some 5% with an inconclusive outcome. The call rests on the fitted dose curve; in most records, active means well fitted inhibition curve with a large enough effect; inconclusive means small, poorly fitted or top-dose-only effect; inactive means flat fitted curve, though single readings scatter. Some of the results follow.

Experiment: Acumen qHTS Assay for Inhibitors of the mTORC1 Signaling Pathway in MEF (Tsc2-/-, p53-/-) Cells: Sytravon;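 further: plate controls were DMSO for no effect and rapamycin for full effect; nearly all actives have a fitted effect of over 50% in size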
Conditions: phospho-rpS6 immunofluorescence/PI, 24 h; series mostly up to 38.3 µM; activity change, negative = inhibition: at the top concentration
Outline: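 Readout is phospho-S6 Alexa 488 signal normalized to PI per well, reported as % active cells with thresholds set from rapamycin (7.5 nM) and DMSO controls. Cells: Tsc2-/-, p53-/- MEFs, 24 hrs compound at 37 C; PI cell number serves as viability.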

Activity change, negative = inhibition, inactive:
Cc1ccc(CNC(=O)Cn2c(=O)n(-c3ccc(Cl)cc3)c(=O)c3c(C)c(C)sc32)cc1 -19.1%
CCCCNc1nc2c(S(=O)(=O)c3ccc(C)c(C)c3)nnn2c2ccsc12 -13.2%
Cc1ccc(CSc2nc3c([nH]c4ccccc43)c(=O)n2C)cc1 2.14%
Cc1c(-c2nc(-c3ccccc3)no2)nnn1-c1cccc(C(F)(F)F)c1 10.6%
COc1cc(Nc2ncc3c(n2)CCN(Cc2cc(Br)cs2)C3)cc(OC)c1 5.55%
COC(=O)c1ccccc1NC(=O)c1ccc2c(c1)CCN2S(C)(=O)=O 2.17%
Cc1cc(Nc2ccc(F)cc2)n2c(nc3ccccc32)c1C#N -12.4%
COc1ccccc1CNC(=O)c1ccc2c(c1)nc(C)n2-c1ccccc1OC -0.881%
Cc1nn2c(-c3ccco3)ccnc2c1-c1ccc(F)cc1 -3.35%
COc1ccccc1NC(=O)CN1CCCN(S(=O)(=O)c2ccc(Br)cc2)CC1 -0.249%
Cc1nc2ccccn2c(=O)c1NC(=O)c1ccc(C(F)(F)F)cc1 -15.2%
COc1ccc(NC(=O)c2cccn2-c2nnc(N3CCCCC3)s2)cc1Cl -13.4%
CCOc1ccc(NC(=O)Cn2c(C)cc3ccccc3c2=O)cc1 -12.2%
Cc1ccc(NC(=O)Cn2c(=O)n(CCCCC(=O)NCc3ccccc3Cl)c(=O)c3ccccc32)cc1C -8.71%
O=C(O)c1ccc(-n2c(/C=C\c3ccc(O)cc3)nc3ccccc3c2=O)cc1 6.37%
COc1ccc(/C=C(\C#N)c2nc(-c3cc4c(ccc5ccccc54)oc3=O)cs2)cc1O 3.53%
Cc1ccc(C2=Nc3ccccc3N(CC(=O)NCc3ccc(F)cc3)C(=O)C2)cc1C -2.23%
CCOC(=O)c1ccccc1NC(=O)c1sc2ncn(Cc3cccc(F)c3)c(=O)c2c1C 2.43%
Cc1ccc(C)c(NC(=O)CSc2c3c(nc4ccc(Cl)cc24)CCCC3)c1 2.14%
COc1cn(CC(=O)Nc2cccc(C)c2C)c(CN2CCCCC2)cc1=O -0.51%
CC1=C(C(=O)Nc2cccnc2)C(c2ccc(Cl)cc2)n2nc(-c3ccccc3)nc2N1 (stereo unspecified) 0.436%
COc1ccc(OC)c(S(=O)(=O)NCc2cccn2Cc2cccc(C)c2)c1 4.44%
COc1ccc(C(=O)Nc2cccc(OCc3cc(=O)n4c5c(sc4n3)CCCC5)c2)cc1 -8.97%
Cn1c(=O)c2c(nc3n(-c4ccc(O)cc4)c(-c4ccc(Br)cc4)cn23)n(C)c1=O 3.93%
COc1cccc(C(=O)c2cn(CC(=O)NCc3ccccc3)c3nc(C)ccc3c2=O)c1 2.58%
COC(=O)c1sc(NC(=O)/C=C/c2ccc(OC)c(OC)c2)c(C(=O)OC)c1C 2.79%
COc1ccc(CNC(=O)CSc2nc3ccccc3nc2Cc2ccccc2OC)cc1 0.478%
COC(=O)c1cc2c(cc1NC(=O)c1cnn(-c3ccc(C)cc3)c1-n1cccc1)OCO2 0%
CC(C)NC(=O)CCCN1C(=O)CCn2nc(-c3cccn3C)cc21 0%
CCN1CCN(c2cc3c(cc2F)c(=O)c(S(=O)(=O)c2ccccc2)cn3C)CC1 -1.41%
COc1ccccc1-c1cc(C(=O)Nc2ccccc2C(F)(F)F)no1 -18%
COc1ccccc1NC(=O)CSc1nc2ccccc2c2nc(-c3ccccc3)nn12 -17.6%
Cc1[nH]c2ccccc2c1C1N2CC3(C)CN1CC(C)(C2)C3=O (stereo unspecified) 7.48%
Cc1nn(C)c2c1c(C(F)(F)F)cc(=O)n2C(C)C(=O)NCc1ccc(Cl)cc1 (stereo unspecified) -14.2%
O=C(Nc1ccc(Br)cc1F)N1CCC(CN2CCCC2)CC1 -4.82%
CC1=C(C(=O)OCc2ccccc2)C(c2cccc(Cl)c2Cl)CC(=O)N1 (stereo unspecified) -11.8%
Cc1cccc(CNC(=O)CSCc2cnn(-c3ccccc3)c2-n2cccc2)c1 -10.3%
CCOC(=O)c1ccc(NS(=O)(=O)c2cc(-c3onc(C)c3C)ccc2C)cc1 4.32%
COc1cc(OC)c(C2Nc3c(C)cccc3-c3cc(C)nn32)cc1OC (stereo unspecified) 1.92%
CCN1C(=O)c2ccccc2S(=O)c2ccc(C(=O)N3CCN(c4cccc(C)c4)C(C)C3)cc21 (stereo unspecified) 1.85%
CC1=C(c2ccc(C)cc2)S(=O)(=O)NC1=NCc1cccc(F)c1 -0.182%
COC(=O)c1ccc(NC(=O)CC2C(=O)N(c3ccc(Cl)cc3)C(=O)N2Cc2ccco2)cc1 (stereo unspecified) 0.566%
COc1ccc(NC(=O)CN2CCCN(Cc3ccc(Cl)cc3)S2(=O)=O)cc1Cl 6.23%
CCN1c2ccccc2-c2nc(SCC(=O)NCc3ccc(C)cc3)ncc2S1(=O)=O 6.4%
COc1ccc(CNC(=O)c2cnc3sc(N4CCCCCC4)nn3c2=O)cc1 -9.52%
CCOC(=O)c1cnc2ccccc2c1NCCc1ccc(OC)c(OC)c1 -27%
Cc1sc2ncn(CC(=O)N3CCN(c4ccc(F)cc4)CC3)c(=O)c2c1S(=O)(=O)N1CCC(C)CC1 -0.287%
COC(=O)C1=C(c2ccccc2)c2ccccc2S(=O)(=O)N1CC(=O)Nc1ccc(F)c(F)c1 -17.4%
Cc1ccc(CNC(=O)Cn2c(=O)cc(C(F)(F)F)c3c(C)nn(C)c32)cc1 -1.79%
CCOc1ccc(NC(=O)CN(c2ccc(CC)cc2)S(=O)(=O)c2c(C)noc2C)cc1 -0.469%
CCOc1ccc(-c2nc(Cn3c(=O)cc(-c4ccccc4)c4c(C)nn(C)c43)c(C)o2)cc1 2.51%
Cc1ccc(CNC(=O)C2CCN(S(=O)(=O)c3c(C)noc3/C=C/c3cccs3)CC2)cc1 -15.4%
O=C(CCS(=O)(=O)c1cc2c(cc1Cl)NC(=O)CO2)NCc1ccccc1Cl 4.02%
Oc1c(C(c2ccc(Cl)cc2Cl)N2CCN(c3ccccc3)CC2)sc2nc(-c3ccco3)nn12 (stereo unspecified) 2.96%
O=C(NCc1cccc(Cl)c1)c1ccc(NC(=O)N2CC3CCCN3c3ccccc32)cc1 (stereo unspecified) 8.43%
CC(C)Oc1ccc(CNC(=O)c2ccc(CN3CC(=O)N4CCCCC4C3=O)cc2)cc1 (stereo unspecified) 0.752%
CSc1ncc(C(=O)NCc2cccc(F)c2)c(-c2ccccc2)n1 -0.207%
CCCc1nc(SC)ncc1C(=O)N1CCN(c2ccc(Cl)cc2)CC1 -0.0457%
O=c1c2oc3ccccc3c2n(Cc2ccccc2Cl)c(=O)n1Cc1ccco1 -1.66%
COc1ccc(CN(Cc2ccco2)c2cnc(S(C)(=O)=O)nc2C(=O)Nc2ccc(C)c(Cl)c2)cc1 -7.03%
CCCn1c(SCc2nc(-c3ccc(OC)c(OC)c3)no2)nnc1-c1ccccc1 7.72%
Cc1ccc(NC(=O)c2cnn3c(C(F)F)cc(-c4ccccc4)nc23)cc1F -0.14%
O=C(NCCc1ccccc1)C1CCC(CNS(=O)(=O)c2ccccc2)CC1 (stereo unspecified) -14.7%
CC(C)Oc1ccc(C(=O)N2CCN(CCc3ccccn3)CC2)cc1 -0.107%
COc1ccc(OC)c(CNC(=O)c2ccc(-c3nc(CSc4ccccc4)c(C)o3)cc2)c1 -6.09%
CC1CCc2nn(CC(=O)Nc3ccccc3Cl)cc2C1 (stereo unspecified) 1.26%
CCOc1ccc(NC(=O)NCCc2c(C)nn(C)c2C)cc1 0%
COc1ccc(NC(=O)C(=O)NCC(c2cccnc2)N2CCc3ccccc32)cc1OC (stereo unspecified) -0.946%
COc1cccc(S(=O)(=O)N2CCN(Cc3ccc4c(c3)OCO4)CC2)c1 -7.23%
CN(Cc1ccccc1)S(=O)(=O)c1ccc(-c2cnc(C3CC3)o2)cc1 7.47%
Cc1c(C2=CCN(S(=O)(=O)c3cccc(Cl)c3)CC2)c2ccccc2n1CC(=O)N1CCCC1 -0.0867%
Cc1ccc(NC(=O)C(C)Sc2nc(=O)cc(N)n2-c2cccc(C)c2)cc1 (stereo unspecified) -2.7%
Cc1cccc(N2CCN(C(=O)CN3CCSc4ccccc43)CC2C)c1 (stereo unspecified) 5.45%
Cc1ccc(C)c(NC(=O)CN2C(=O)COc3ccc(Cl)cc32)c1 -1.65%
Cn1c(=O)nc2n(-c3ccc(Cl)c(Cl)c3)c3cc(Cl)ccc3cc-2c1=O -4.67%
O=C(Nc1c(C(=O)Nc2ccc(F)cc2)oc2ccccc12)c1ccccc1F -20.2%
COc1ccccc1CNC(=O)C1CCCN(c2nnc(-n3c(C)ccc3C)s2)C1 (stereo unspecified) -1.17%
CC1=C(C(=O)OCC2CCCCC2)C(c2ccccc2F)CC(=O)N1 (stereo unspecified) -29.8%
COc1ccc(C(=O)N(Cc2ccc(C(C)C)cc2)C2CCS(=O)(=O)C2)cc1 (stereo unspecified) 3.17%
Cc1ccccc1CNS(=O)(=O)c1csc(C(N)=O)c1 4.55%
Cc1nc2nc(SCC(=O)NCCc3ccccc3)nn2c(C)c1Cc1c(F)cccc1Cl 10.5%
Cc1ccc(C(C)C)c(OCC(=O)N2CCC(c3nc4ccccc4o3)CC2)c1 -2.84%
CCn1c(SCCOc2ccccc2F)nc2ccccc21 -7.52%
CCOc1ccccc1C(=O)Nc1ccc2c(c1)N(C)C(=O)c1ccccc1S2 -14.1%
Cc1nn(-c2ccc(N3CCOCC3)nn2)c(C)c1CCC(=O)NCc1ccc(OC(C)C)cc1 -5.51%
Cc1c(C2=CCN(S(=O)(=O)c3ccc(CC(C)C)cc3)CC2)c2ccccc2n1CC(=O)N1CCCC1 -9.04%
Cc1cccc(N(C)S(=O)(=O)c2cc3c(cc2Cl)NC(=O)CO3)c1 -12%
Cc1nn2c(=O)cc(COC(=O)c3cccc(NC(=O)c4cccs4)c3)nc2s1 5.67%
CCOc1ccc(NS(=O)(=O)c2ccc3[nH]c4c(c3c2)CCCC4)cc1 -7.79%
Cc1ccc(CNS(=O)(=O)c2ccc3c(c2)CCN3S(C)(=O)=O)cc1 1.03%
COc1ccc2nc(N(Cc3cccnc3)C(=O)c3ccc4c(c3)OCCO4)sc2c1 6.55%
COc1ccc(N(CC(=O)N2CCN(c3cccc(C)c3C)CC2)S(=O)(=O)c2c(C)noc2C)cc1 -5.41%
COc1ccc(-c2cn3nc(N4CCC(C(=O)Nc5cccc(C)c5C)CC4)sc3n2)cc1 -0.452%
Cc1c(Cl)cccc1NC(=O)CSc1nc(=O)n(Cc2ccccn2)c2c1CCC2 -4.61%
CCCSc1ncc(Cl)c(C(=O)Nc2sc3c(c2C(=O)NCCOC)CCCC3)n1 2.92%
Cc1ccc(NC(=O)Cn2c(=O)n(CCCCC(=O)NCCc3ccccc3)c(=O)c3ccccc32)c(C)c1 -0.957%
